# Assay results reported in the supplement of paper PMC3334620.
# The full ranking holds about 33,000 sequences; the median of “E-score (-0.5 to 0.5)” is about -0.04, and the highest 2% start at about 0.36. The list shows a part of the results.
# Molecular target: T1, Hmlalpha2 (UniProt P0CY09)
# T1 sequence: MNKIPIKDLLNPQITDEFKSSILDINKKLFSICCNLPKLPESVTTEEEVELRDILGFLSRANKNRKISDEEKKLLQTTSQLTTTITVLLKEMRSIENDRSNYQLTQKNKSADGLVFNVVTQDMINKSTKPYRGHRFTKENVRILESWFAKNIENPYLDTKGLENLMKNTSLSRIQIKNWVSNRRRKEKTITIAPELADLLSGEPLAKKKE
# Experiment: PBM E-score (8-mer binding enrichment) (E-score (-0.5 to 0.5)); higher = stronger / more preferred TF binding; most listed sequences are background and not binding sites
# Conditions: protein concentration: 200 nM; construct: GST-full length
# Method: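 Universal 'all 10-mer' protein binding microarrays (Agilent AMADID 015681) probed with GST-tagged S. cerevisiae TFs (full-length or DBD) made by in vitro transcription/translation (PURExpress), about 100-200 nM. Bound TF was detected with fluorescent anti-GST. Each ungapped 8-mer (which stands for itself and its reverse complement) is scored by the PBM enrichment score (E-score), a modified Wilcoxon-Mann-Whitney statistic from -0.5 to +0.5, computed with the Universal PBM Analysis Suite. Scale: above 0.35 generally sequence-specific binding.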
row,Sequence,PBM E-score
1,ACAGAAAT,0.107
2,TCGAAGAA,0.0605
3,CCCAGTAA,0.0249
4,ACCTGTAA,0.108
5,AGGCTCAT,-0.261
6,ACCAGAAA,-0.00994
7,CCCTCCAA,-0.277
8,AAGTGCAT,0.168
9,ACTATCTG,-0.156
10,AAGTTAGA,0.178
11,ACAAGGAG,0.204
12,ATTCGCAG,0.0937
13,ACAAGATG,0.187
14,CGAGATAG,-0.206
15,CTTAAAAG,-0.143
16,TAATCCGA,-0.00201
17,CCATACAC,0.145
18,AGCGCGAG,-0.144
19,AAGCCACG,0.0292
20,AAATTGGC,-0.169
21,AACGGCTG,-0.249
22,GCCACACC,-0.0937
23,ATCACGTA,0.3
24,ATTTGTAG,0.14
25,GCACGTCA,0.047

row,Sequence,PBM E-score
1,CCTACAAC,0.212
2,CATGTTAG,0.422
3,ATGATTTG,0.0537
4,AGCCGGCA,-0.27
5,ATCTCAGG,-0.22
6,AGAGCGAT,-0.256
7,AGCCAACA,-0.00609
8,ACCAAAGC,-0.121
9,ACGCGTGC,0.189
10,AGGGTGGG,-0.158
11,CACTTTGA,-0.122
12,ACCCCTGC,-0.264
13,GCAATGTA,0.307
14,CGAATTTA,0.19
15,GCATTGGC,-0.0488
16,TAGGCATA,-0.107
17,AAGCGCCT,-0.234
18,GAGGGCCC,-0.353
19,TATTATGA,0.161
20,GCCTGCCC,-0.337
21,AACCGCGG,-0.0547
22,CTGAGTTA,0.0212
23,CGGGAGGC,-0.259
24,ATTGGATC,-0.0631
25,ACTAATCC,-0.0716

row,Sequence,PBM E-score
1,TGGTACAA,0.0747
2,CTCACGAA,0.0655
3,AAATTGAA,0.144
4,AACTCGCA,0.182
5,GCACATTA,0.196
6,AGGAGGGG,-0.269
7,ATATGGGA,-0.268
8,CCTAGCCA,-0.135
9,AAGAGAAC,0.0282
10,CAAAGAAG,0.0771
11,CCATGGAG,-0.261
12,GACAGAAA,0.0409
13,AGCGGGTC,-0.237
14,GACAGCAC,-0.0231
15,AGGCAGGA,-0.197
16,GTGCCGAA,-0.0943
17,CGCAGCAG,-0.0222
18,AAGAACAG,0.137
19,CGAGAGTC,-0.358
20,AGTTGTAC,0.167
21,AAGGAAAT,0.0212
22,CGGCTTAC,0.102
23,ATCTGTCC,-0.114
24,ACTCCTCT,-0.232
25,CTATTCTC,-0.192

row,Sequence,PBM E-score
1,CATACTAA,0.203
2,CTGGGCAC,-0.338
3,ACTGATAA,-0.015
4,CCGACGTC,-0.18
5,TAGAGATA,0.0533
6,ACACTTAA,0.292
7,AACCCCGT,-0.196
8,ATGTAGGG,0.0515
9,ACTGGATA,0.0773
10,CTTGCTAC,0.0587
11,ACGTGGTC,0.163
12,AGTTAATG,0.157
13,ATTAATCC,0.0267
14,CCCACGCA,-0.0709
15,TCTGCTAA,0.0237
16,AATAATAG,-0.0525
17,GCCTACGC,0.0424
18,CTCGCAAC,0.00749
19,CATCGCGC,-0.0632
20,AAAGTATG,0.0804
21,CAAAAAAG,0.114
22,ACGTGGTA,0.118
23,CTTGACGA,-0.023
24,GATACCAA,0.0659
25,TCGTTTCA,0.00354

row,Sequence,PBM E-score
1,CGAGTCGA,0.0186
2,CGGGAGAG,-0.224
3,ACATTGCC,0.112
4,AGCGAATC,-0.0201
5,GATACTCC,-0.165
6,GCCTAGAC,-0.134
7,AAACAGTC,-0.0603
8,CAGTATAA,0.00393
9,CCCTGGAC,-0.149
10,CACGACAG,0.0992
11,GCCTATTA,0.0858
12,AATTCTCC,-0.214
13,CATGAACA,0.287
14,GCCACCCC,-0.243
15,ACAGACGT,0.181
16,TGAAGTCA,-0.162
17,CATTGATA,0.0734
18,CACATATA,0.311
19,AAAACGAA,0.171
20,AGCCCGTC,-0.201
21,AATATTGG,-0.0746
22,CGGATGCC,0.0226
23,AATGGTTG,-0.0312
24,AGTATGAG,-0.00587
25,CAAACTCG,-0.197

row,Sequence,PBM E-score
1,AGGCCGCG,-0.0312
2,ATTCGCAC,-0.0989
3,CGTTAGAC,-0.0783
4,GATAGAGA,-0.247
5,CAAATGAG,-0.0119
6,GAACGGAA,-0.143
7,ACCGGAAT,-0.208
8,TATATAGA,0.21
9,AGGTGCGG,-0.0249
10,AAGACAGA,0.144
11,AAACATTT,0.213
12,ATCGAAAG,-0.0356
13,GGTGCACA,-0.193
14,GTTCGAAC,0.174
15,ACGTGGCG,0.108
16,ATGCTCTC,-0.00497
17,CTTAAGGA,-0.0813
18,CTACGGGA,-0.28
19,ATACCCGC,0.0858
20,AGTCGAAG,-0.0301
21,ACCTCGCT,-0.139
22,CCTATTTA,0.0457
23,ACCGCACT,-0.0646
24,AGGAACCC,-0.154
25,AATAACAG,0.307

row,Sequence,PBM E-score
1,CAACAGGA,-0.0223
2,GCGGCACC,-0.184
3,CTGACCCA,-0.239
4,CGCTCTTA,0.0692
5,CCCGTTGC,-0.185
6,GCAAGTTA,0.149
7,GCTGCGAC,-0.17
8,TGTGCACA,0.0852
9,ATACGACG,0.146
10,CAACGTAG,0.128
11,CCGTTAGA,-0.0606
12,GCAGACGA,-0.192
13,AAGTTAGC,0.081
14,ATATTCCG,0.00723
15,CGCGGAGC,-0.196
16,GGTTTGAA,0.0337
17,CATAGTGC,0.129
18,GTCCGAAA,-0.0905
19,ACACCCGT,0.169
20,CGCAAGGA,-0.139
21,GGGCTATA,-0.208
22,AGTGTGTC,0.174
